The list shows a part of the results. Single values are uncertain, as repeats are few or missing.
Assays:
Experiment in all cases: cell count relative to DMSO control; melanoma cells; higher = more viable cells
Settings in all cases: library dose: standard library concentration; 72 h
[1] = test system: G361
[2] = test system: IPC-298
[3] = test system: IST-MEL1
[4] = test system: LB2518-MEL
[5] = test system: LOXIMVI
[6] = test system: MEL-HO
[7] = test system: MZ2-MEL
[8] = test system: MeWo
[9] = test system: RPMI7951
[10] = test system: RVH-421
[11] = test system: SkMel28
[12] = test system: SkMel2
[13] = test system: SkMel30
[14] = test system: SkMel5
[15] = test system: UACC257
[16] = test system: UACC62
[17] = test system: WM115
[18] = test system: WM1716
[19] = test system: WM1745
[20] = test system: WM3526
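Note: cells treated in 1,536-well plates, then fixed and DAPI-stained, with nuclei counted from automated high-throughput microscope images.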

SMILES	cell count [1] [%]	cell count [2] [%]	cell count [3] [%]	cell count [4] [%]	cell count [5] [%]	cell count [6] [%]	cell count [7] [%]	cell count [8] [%]	cell count [9] [%]	cell count [10] [%]	cell count [11] [%]	cell count [12] [%]	cell count [13] [%]	cell count [14] [%]	cell count [15] [%]	cell count [16] [%]	cell count [17] [%]	cell count [18] [%]	cell count [19] [%]	cell count [20] [%]
Cn1c(Nc2ccc(C(F)(F)F)cc2)nc2cc(Oc3ccnc(-c4ncc(C(F)(F)F)[nH]4)c3)ccc21 + C=CCn1c(=O)c2cnc(Nc3ccc(N4CCN(C)CC4)cc3)nc2n1-c1cccc(C(C)(C)O)n1 [MK1775] (first compound 0.4 µM, partner dose 0.1 µM)	31.6	47.1	74.6	28.3	78.4	58.8	73.4	64	35.3	59.2	28.7	42.5	73.7	35.4	76.5	39.6	33.6	64.7	35.7	38.4
Nc1cccc2c1CN(C1CCC(=O)NC1=O)C2=O (stereo not given) [lenalidomide] + CC(C)(C)c1cnc(CSc2cnc(NC(=O)C3CCNCC3)s2)o1 [SNS-032] (first compound 5 µM, partner dose 0.05 µM)	90	101	95.9	74.8	75.1	103	104	99.4	30.2	92.4	64.4	67	103	72.5	100	80.8	78	80.9	81.3	103
C#Cc1cccc(Nc2ncnc3cc(OCCOC)c(OCCOC)cc23)c1 [erlotinib] + Cc1nc(Nc2ncc(C(=O)Nc3c(C)cccc3Cl)s2)cc(N2CCN(CCO)CC2)n1 [dasatanib] (first compound 4 µM, partner dose 0.02 µM)	70.6	52.2	63.3	69.8	24.5	73.7	45	69.4	30.6	37.7	59.1	78.5	68.9	49.3	74.2	40.3	47.5	68.7	27.2	64.6
Nc1cccc2c1CN(C1CCC(=O)NC1=O)C2=O (stereo not given) [lenalidomide] + O=C1NC(=O)/C(=C/c2ccc(-c3ccc(F)cc3O)o2)S1 [AS252424] (first compound 5 µM, partner dose 5 µM)	93.6	91.5	105	105	92.3	94.8	93.1	86.8	89.8	105	99	83.3	74.8	62.5	100	86.7	87.2	93.4	107	81.3
O=C(CCCCCCC(=O)Nc1ccccc1)NO [vorinostat] + CCc1ccc(CCOc2ccc(CC3SC(=O)NC3=O)cc2)nc1 [pioglitazone] (first compound 0.4 µM, partner dose 10 µM)	65.7	97.5	92.8	81.6	84.2	88.1	97.4	86.3	84	97.4	71.1	76.5	95.1	60.6	54.2	73.7	77.5	98.2	77.3	74.6
COCC[n+]1c2c(n(Cc3cnccn3)c1C)C(=O)c1ccccc1C2=O + COC(=O)c1sccc1S(=O)(=O)Nc1ccc(Nc2ccccc2)cc1OC [GSK0660] (first compound 0.002 µM, partner dose 5 µM)	83.5	73	54.2	50.7	114	100	39.8	93.2	37.2	94.5	81.1	63.2	87.7	62.4	41	91.9	67.5	75.9	83.4	77.3
Nc1cccc2c1CN(C1CCC(=O)NC1=O)C2=O (stereo not given) [lenalidomide] + CCCCCCCCCCCC1=C(O)C(=O)C=C(O)C1=O [Embelin] (first compound 5 µM, partner dose 6 µM)	77.3	75.1	57.5	100	187	78.9	96	98.3	79.6	82.6	99.2	91.2	86.6	82.7	82.8	84.8	86.9	85.2	70.4	102
OCc1c[nH]c2ccccc12 [Indole-3-carbinol] + O=C(Nc1cccc(Cl)c1)Nc1ncc(CCNc2ncnc3ccsc23)s1 [SNS314] (first compound 4 µM, partner dose 0.004 µM)	106	108	67	85.4	65.5	82.5	108	79.3	103	97.6	66.1	94.9	126	122	93.5	127	70.6	82.4	103	107
Cn1c(Nc2ccc(C(F)(F)F)cc2)nc2cc(Oc3ccnc(-c4ncc(C(F)(F)F)[nH]4)c3)ccc21 + O=C(Nc1ccccc1)c1cc([N+](=O)[O-])ccc1Cl [GW9662] (first compound 0.4 µM, partner dose 10 µM)	31.9	49.6	92.7	30.2	96	58.6	48.4	68.8	44.4	40.2	23.8	51.2	71.5	33.7	82.6	48.7	32.7	70.1	55.6	38.8
